Columns and labels:
A375 cells = assay: FACS binding to cell surface; design: species or system human; conditions: A375, Melanoma; 10 μg/ml
Procedure: (§1) To determine the binding characteristics of the anti-TWEAKR antibodies on mouse and human cancer cell lines, binding was tested by flow cytometry to a panel of cell lines. Adherent cells were washed twice with PBS without Ca and Mg (Biochrom #L1825: aqueous solution containing 8000 mg/l NaCl, 200 mg/l KCl, 1150 mg/l Na2HPO4, and 200 mg/l KH2PO4) and detached by enzyme-free PBS based cell dissociation buffer (Invitrogen). Cells were suspended at approximately 10^5 cells/well in FACS buffer (PBS without Ca/Mg, containing 3% FCS, Biochrom). Cells were centrifuged (250 g, 5 min, 4° C.) and supernatant discarded. Cells were resuspended in dilutions of the antibodies of interest (10 μg/ml in 80 μl if not indicated otherwise) in FACS buffer, and incubated on ice for 1 h. In the following cells were washed once with 1000 cold FACS buffer and 80 μl secondary antibody diluted at 1:150 (PE goat anti-human IgG, Dianova #109-115-098, or PE Goat Anti-Mouse IgG, Jackson Immuno Research #115-115-164) was added. After incubation for 1 h on ice cells were again washed with cold FACS buffer, resuspended in 1000 FACS buffer and analyzed by flow cytometry using a FACS-Array (BD Biosciences). Results are calculated as Geo Mean of fluorescence detected by the antibody of interest subtracted by background fluorescence as measured by detection with the secondary antibody alone. Values are scored according to the following system: Geo Mean−Geo Mean of secondary antibody alone >10: +, >100: ++, >1000: +++, 10000: ++++, close to category border in ( ).

A549 cells = assay: FACS binding to cell surface; design: species or system human; conditions: A549, NSCLC; 10 μg/ml
Procedure: as §1

Calu-6 cells = assay: FACS binding to cell surface; design: species or system human; conditions: Calu-6, NSCLC; 10 μg/ml
Procedure: as §1

EKVX cells = assay: FACS binding to cell surface; design: species or system human; conditions: NSCLC, 10 μg/ml
Procedure: as §1

Fadu cells = assay: FACS binding to cell surface; design: species or system human; conditions: HNSCC, 10 μg/ml
Procedure: as §1

HT-29 cells = assay: FACS binding to cell surface; design: species or system human; conditions: HT-29, CRC; 10 μg/ml
Procedure: as §1

MDA-MB-231 cells = assay: FACS binding to cell surface; design: species or system human; conditions: MDA-MB-231, BreastCA; 10 μg/ml
Procedure: as §1

MDA-MB-453 cells = assay: FACS binding to cell surface; design: species or system human; conditions: MDA-MB-453, BreastCA; 10 μg/ml
Procedure: as §1

MiaPaca2 cells = assay: FACS binding to cell surface; design: species or system human; conditions: MiaPaca2, PancCA; 10 μg/ml
Procedure: as §1

NCI-H460 cells = assay: FACS binding to cell surface; design: species or system human; conditions: NCI-H460, NSCLC; 10 μg/ml
Procedure: as §1

NCI-N87 cells = assay: FACS binding to cell surface; design: species or system human; conditions: NCI-N87, GastricCA; 10 μg/ml
Procedure: as §1

PC3 cells = assay: FACS binding to cell surface; design: species or system human; conditions: PC3, Prostate CA; 10 μg/ml
Procedure: as §1

SCC4 cells = assay: FACS binding to cell surface; design: species or system human; conditions: SCC4, HNSCC; 10 μg/ml
Procedure: as §1

SW-480 cells = assay: FACS binding to cell surface; design: species or system human; conditions: SW-480, CRC; 10 μg/ml
Procedure: as §1

Scaber cells = assay: FACS binding to cell surface; design: species or system human; conditions: Bladder CA, 10 μg/ml
Procedure: as §1

A375 xenografts = assay: Cytokines in serum/plasma of xenograft bearing mice (Luminex); type: in vivo; conditions: 10 mg/kg
Source text: To investigate, whether the observed cytokine secretion is also of relevance in xenograft tumors in mice, human and murine cytokines in serum/plasma from tumor bearing (A375, WiDr) as well as tumor free mice were investigated. 5×10^6 A375 cells in Matrigel/PBS (1:1) or 5×10^6 WiDr cells in Matrigel/Medium (1:1) were subcutaneously inoculated in immunodeficient female NMRI nude mice. Parallel to A375-bearing mice, non-tumor mice were investigated. Treatment started 7d after inoculation with established tumors of about 40 mm^2. […] Mice were then sacrificed at given time-points (0, 6 h, 24 h for A375-bearing mice and 0, 7 h, 24 h, 72 h, 168 h, 240 h for WiDr-bearing mice) to harvest serum/plasma samples. Blood was collected after decapitation and serum was prepared by 30 minutes clotting with subsequent centrifugation at 1000×g.
Cytokines were quantified using Luminex® bead immunoassays. Human cytokines were determined with Human Cytokine Magnetic 25-plex panel (Invitrogen®, Cat-No. LHC0009M), comprising IL-1β, IL-1RA, IL-2, IL-2R, IL-4, IL-5, IL-6, IL-7, IL-8, IL-10, IL-12 (p40), IL-13, IL-15, IL-17, TNF-α, IFN-α, IFN-γ, GM-CSF, MIP-1α, MIP-1β, IP-10, MIG, Eotaxin, RANTES, and MCP-1). Murine cytokines were determined with Mouse Cytokine Magnetic 20-plex panel (Invitrogen®, Cat-No. LHC0006M) comprising FGF basic, GM-CSF, IFN-γ, IL-1α, IL-1β, IL-2, IL-4, IL-5, IL-6, IL-10, IL-13, IL-12 (p40/p70), IL-17, IP-10, KC, MCP-1, MIG, MIP-1α, TNF-α and VEGF). The assays were conducted according to the manufacturer's instructions and measured by the Luminex reader Bio-Plex 200 (Bio-Rad GmbH). Cytokine concentrations were interpolated from standard curves, as part of the assay procedure, by the operating software Bio-Plex Manger (Bio-Rad GmbH).

B1: TPP-1538: anti-TWEAKR human IgG1; heavy chain SEQ ID NO: 62, light chain SEQ ID NO: 61 (antibody, listed as Homo Sapiens)
heavy: EVQLLESGGGLVQPGGSLRLSCAASGFTFSPYPMMWVRQAPGKGLEWVSYISPSGGKTHYADSVKGRFTISRDNSKNTLYLQMNSLRAEDTAVYYCARGGDTYFDYFDYWGQGTLVTVSS[human IgG1 constant region not shown]
light: AQDIQMTQSPATLSASVGDRVTITCRASQSISSYLNWYQQKPGKAPKLLIYAASSLQSGVPSRFSGSGSGTDFTLTISSLQPEDFATYYCQQSYSSPGITFGPGTKVEIKRTVAAPSVFIFPPSDEQLKSGTASVVCLLNNFYPREAKVQWKVDNALQSGNSQESVTEQDSKDSTYSLSSTLTLSKADYEKHKLYACEVTHQGLSSPVTKSFNRGEC
Binding by scoring of FACS analysis (A375 cells): ++ (>100: ++)
Binding by scoring of FACS analysis (A549 cells): ++ (>100: ++)
Binding by scoring of FACS analysis (Calu-6 cells): ++ (>100: ++)
Binding by scoring of FACS analysis (EKVX cells): ++ (>100: ++)
Binding by scoring of FACS analysis (Fadu cells): ++ (>100: ++)
Binding by scoring of FACS analysis (HT-29 cells): ++ (>100: ++)
Binding by scoring of FACS analysis (MDA-MB-231 cells): ++ (>100: ++)
Binding by scoring of FACS analysis (MDA-MB-453 cells): + (>10: +)
Binding by scoring of FACS analysis (MiaPaca2 cells): + (>10: +)
Binding by scoring of FACS analysis (NCI-H460 cells): ++ (>100: ++)
Binding by scoring of FACS analysis (NCI-N87 cells): ++ (>100: ++)
Binding by scoring of FACS analysis (PC3 cells): ++ (>100: ++)
Binding by scoring of FACS analysis (SCC4 cells): +++ (>1000: +++)
Binding by scoring of FACS analysis (SW-480 cells): ++ (>100: ++)
Binding by scoring of FACS analysis (Scaber cells): ++ (>100: ++)
levels of further human cytokines (A375 xenografts; A375 tumor bearing mice): increased levels of human MCP-1, IP-10 and IL-1RA were observed
human IL-8 release (A375 xenografts; A375 tumor bearing mice, 6 h after treatment): human IL-8 is released
murine cytokines including the murine IL-8 analogue KC (A375 xenografts; plasma of tumor bearing and tumor free mice): no increase of murine cytokines
